# In all, about 33,000 sequences were measured (“E-score (-0.5 to 0.5)”: median about -0.032, highest 2% from about 0.36 on). This is one part of the list.
# Molecular target: T1, Sko1 (UniProt Q02100)
# T1 sequence: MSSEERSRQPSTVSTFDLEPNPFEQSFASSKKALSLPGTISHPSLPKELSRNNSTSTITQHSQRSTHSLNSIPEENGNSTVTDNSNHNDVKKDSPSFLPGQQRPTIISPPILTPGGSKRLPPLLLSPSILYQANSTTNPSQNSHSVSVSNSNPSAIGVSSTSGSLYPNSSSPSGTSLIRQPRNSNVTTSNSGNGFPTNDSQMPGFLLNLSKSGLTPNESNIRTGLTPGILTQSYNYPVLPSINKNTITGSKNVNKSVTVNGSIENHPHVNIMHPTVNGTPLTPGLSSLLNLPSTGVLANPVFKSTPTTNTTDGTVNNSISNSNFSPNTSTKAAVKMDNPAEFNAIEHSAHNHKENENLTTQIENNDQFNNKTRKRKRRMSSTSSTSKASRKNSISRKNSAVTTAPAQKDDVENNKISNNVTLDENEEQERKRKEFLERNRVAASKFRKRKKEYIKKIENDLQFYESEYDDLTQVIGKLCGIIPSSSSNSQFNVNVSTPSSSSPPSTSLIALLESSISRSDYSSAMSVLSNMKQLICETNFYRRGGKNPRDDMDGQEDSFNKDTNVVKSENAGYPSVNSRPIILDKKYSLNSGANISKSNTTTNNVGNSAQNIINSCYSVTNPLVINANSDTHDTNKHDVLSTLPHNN
# Assay: PBM E-score (8-mer binding enrichment) (E-score (-0.5 to 0.5)); higher = stronger / more preferred TF binding; most listed sequences are background and not binding sites
# Conditions: protein concentration: 200 nM; construct: GST-full length
# Procedure, shortened: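 Each ungapped eight-base word and its reverse complement, pooled, received an E-score from the Universal PBM Analysis Suite. Underlying scans, normalised with masliner, recorded fluorescent anti-GST bound to GST-tagged yeast transcription factors. These were applied at about 100-200 nM to universal all-10-mer Agilent arrays double-stranded by primer extension.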
row,Sequence,PBM E-score
1,TAGGTCCA,0.018
2,CCAGATGA,0.076
3,AATACGTA,0.482
4,TATCTTAA,0.0791
5,ATTATCAC,0.259
6,CATGAACG,0.0833
7,AGTCTCAC,-0.0619
8,GGGGGCGA,-0.162
9,CCCAAGCC,-0.278
10,CAGCCACA,-0.127
11,AATCGATT,0.122
12,CTGGCACC,-0.303
13,CTGCGTAC,0.149
14,GTGTGTAA,0.239
15,AGAACCAC,0.0726
16,ACGATCGT,0.183
17,CCTCTTGA,-0.0582
18,GGCCTGTA,-0.355
19,GTGGGGAA,0.0417
20,AAGGCCAT,-0.172
21,CTGCGCAC,0.0185
22,GCCGGTCA,-0.0592
23,GGTGTTAA,0.0644
24,GCGAAACA,-0.0372
25,ACCATTGC,-0.00825

row,Sequence,PBM E-score
1,CGAGTTAC,0.138
2,AGAGGTTC,-0.224
3,CTCAATTC,0.0494
4,CTCACGAG,-0.202
5,ATCATGCA,0.0642
6,CCGAATAC,-0.0263
7,AAATAATG,0.269
8,GGACGAAC,0.0363
9,GCTAAGCA,-0.107
10,ATATGGTA,0.12
11,AACGTAGT,0.414
12,CACATTGA,0.152
13,ACCCTGGC,-0.171
14,GTAAGATA,0.166
15,CGTTGTAA,0.199
16,TATCAAAA,0.118
17,GATCACAA,0.0768
18,ATATACAA,0.219
19,ACTACATC,0.274
20,CTCGTCAC,0.38
21,GAAACGGC,-0.117
22,CAACTTTA,0.248
23,GCCCGAGA,-0.148
24,CCAAGCAC,-0.0447
25,CCCTTGAA,-0.245

row,Sequence,PBM E-score
1,ATCCACCG,-0.0573
2,ACCGCTAT,-0.0819
3,TAAGGAGA,-0.0745
4,ATTTGTGC,0.101
5,CCACCTGG,-0.267
6,CGTGGTAA,0.199
7,ATGTTTCG,0.214
8,GCAATGCA,-0.018
9,AGAGCCTG,-0.0792
10,ACTGGTTG,-0.0847
11,AGTCAGAC,-0.203
12,GAAAATGC,0.0279
13,AGCCGATC,0.0331
14,CAGATACC,-0.169
15,CCTATCAG,-0.15
16,ATCAACGG,0.0111
17,GCCAGCGC,-0.251
18,AACCCCTA,-0.215
19,TCTAAGAA,0.162
20,ACAATTAC,0.298
21,AGACCGCG,-0.179
22,ACTCGTAG,-0.00964
23,GCCGGGCA,-0.285
24,AGAGATAG,0.0939
25,ATACTTGA,0.00821

row,Sequence,PBM E-score
1,AAGGTACG,0.241
2,ACTTTGGG,-0.258
3,CAGACTGC,-0.147
4,GTGAATGA,0.231
5,ATTCCCGA,-0.193
6,ACGTTTAC,0.345
7,CATACACA,-0.00338
8,AATTAAAA,0.193
9,TGTTTTAA,0.182
10,CGAATGGA,0.199
11,AATGAATG,0.186
12,CCTCGGTC,-0.189
13,CATTAGAG,-0.134
14,CTTAGAAC,0.166
15,AGACTCAA,-0.0311
16,CTAAAACA,0.0185
17,ATGTCGAA,-0.0346
18,CATCCGGA,-0.204
19,ACCCACCA,-0.0624
20,TACACTCA,0.175
21,GGGGCGGA,-0.338
22,AGTAGTCC,0.0244
23,GCTCGTGA,-0.116
24,ACCACGAT,0.136
25,CTCTAGTA,0.119

row,Sequence,PBM E-score
1,AATTCTTC,0.191
2,CTCTAACA,0.0537
3,CATTCTGG,0.00955
4,CTGAAGGA,-0.233
5,AAGTGGCG,0.102
6,CGATATGC,0.00147
7,CATTACAC,0.198
8,GGTTCTAA,0.0715
9,CCTCTTTC,-0.349
10,CAGTTTGG,-0.164
11,GCGTGAGC,0.0263
12,GTCCACCA,-0.16
13,AAATGCTG,0.183
14,AGCGATGG,-0.247
15,CTGGCCGC,-0.156
16,CTCAGTAA,0.061
17,GAATAAGA,0.0165
18,CTTGGTGA,0.00399
19,CCTGAGTA,-0.0205
20,AATTAAGC,0.131
21,CTTTAACC,-0.248
22,AACTATGC,0.033
23,ACGTTGAG,0.23
24,AAGCCAAA,-0.0352
25,CCGGAAGG,-0.294

row,Sequence,PBM E-score
1,TAGAATAA,0.0957
2,CATAGCCC,-0.0416
3,ATAAACTG,-0.0252
4,CATCTGGC,-0.0626
5,AAATTATA,0.235
6,CATTTCGA,0.0809
7,TCATTGAA,0.146
8,GAGCGGGA,-0.19
9,CTGGAATC,-0.142
10,CACAGGCC,-0.24
11,GGGCACAC,-0.141
12,ACCCTTTA,0.0342
13,AGCCCCCC,-0.355
14,ACGGCAAA,0.0363
15,CAATATCG,0.0717
16,ATTATAAG,0.147
17,GCTTAGGA,-0.201
18,CGGAGCCA,-0.319
19,CCATTACA,0.089
20,GAGGGCAC,-0.279
21,CATCGTGC,0.116
22,CCTATGCG,0.00492
23,AACCGTCG,-0.0293
24,ATCCCGCA,-0.0927
25,GTCCTTGA,-0.035

row,Sequence,PBM E-score
1,AAAAGCGA,0.0693
2,AACCCCCC,-0.417
3,ATGCCCCC,-0.235
4,CGCAGAGC,-0.13
5,CTAACTGC,-0.0657
6,GCATCTTA,0.0858
7,ACCTACAG,-0.146
8,CTCCGTGA,-0.112
9,CATCAAGG,-0.0767
10,GTACTAAC,0.166
11,CCAATTAC,0.275
12,AATGGTAG,0.0473
13,GACCACAA,-0.165
14,GTCGCTGA,0.0246
15,ACATACAG,0.248
16,GAGACTAC,-0.0885
17,CCGAAAAC,0.0533
18,AAGACTGA,0.0273
19,CAGAACGC,-0.0689
20,GAACCCGA,-0.121
21,GCACTACC,-0.0837
22,AAAAGAAA,0.17

# — the supplement of paper PMC3334620
